{"source": "paper PMC4336329", "about": "(PLoS ONE, 2015)", "note": "Screen size: about 310,000 compounds; about 14,000 (4.5%) showed an effect of 50% or more. The effect is printed as a negative number. Some of the results follow.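 Also: peak tail current of the secondary pulse compared with the same well before compound.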", "data": [{"biological_target": "human ether-à-go-go-related gene (hERG) potassium channel (human, UniProt Q12809)", "sequence (Q12809 whole entry, looked up)": "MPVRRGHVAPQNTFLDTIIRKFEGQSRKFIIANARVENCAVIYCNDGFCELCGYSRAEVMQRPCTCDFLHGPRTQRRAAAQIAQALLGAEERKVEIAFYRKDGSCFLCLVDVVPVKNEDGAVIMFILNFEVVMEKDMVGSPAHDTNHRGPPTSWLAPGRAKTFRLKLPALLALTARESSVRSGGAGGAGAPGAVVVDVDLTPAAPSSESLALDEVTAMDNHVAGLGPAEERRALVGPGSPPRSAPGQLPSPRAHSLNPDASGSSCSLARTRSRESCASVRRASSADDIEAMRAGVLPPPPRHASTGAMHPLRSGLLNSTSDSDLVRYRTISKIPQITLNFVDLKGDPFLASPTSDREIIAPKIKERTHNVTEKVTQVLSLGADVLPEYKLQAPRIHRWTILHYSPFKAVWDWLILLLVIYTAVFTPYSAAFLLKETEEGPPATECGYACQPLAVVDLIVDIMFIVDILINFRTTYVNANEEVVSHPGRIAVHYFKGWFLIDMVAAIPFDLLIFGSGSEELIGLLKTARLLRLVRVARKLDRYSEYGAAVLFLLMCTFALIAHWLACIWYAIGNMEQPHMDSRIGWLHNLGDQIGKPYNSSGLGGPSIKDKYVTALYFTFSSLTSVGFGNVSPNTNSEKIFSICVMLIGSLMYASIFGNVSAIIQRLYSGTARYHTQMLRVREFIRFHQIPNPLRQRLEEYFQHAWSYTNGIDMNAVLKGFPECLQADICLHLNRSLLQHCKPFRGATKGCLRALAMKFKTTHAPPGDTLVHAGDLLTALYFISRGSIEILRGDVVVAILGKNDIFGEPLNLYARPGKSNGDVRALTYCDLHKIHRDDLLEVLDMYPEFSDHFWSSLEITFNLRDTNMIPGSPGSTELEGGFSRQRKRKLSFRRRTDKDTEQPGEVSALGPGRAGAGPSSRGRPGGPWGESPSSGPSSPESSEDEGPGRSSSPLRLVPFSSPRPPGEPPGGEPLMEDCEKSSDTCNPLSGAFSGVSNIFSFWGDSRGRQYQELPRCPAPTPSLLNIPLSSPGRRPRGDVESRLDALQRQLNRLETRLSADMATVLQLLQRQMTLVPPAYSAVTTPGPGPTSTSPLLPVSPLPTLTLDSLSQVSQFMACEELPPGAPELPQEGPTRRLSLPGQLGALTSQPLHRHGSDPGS", "assay": "primary screen, population patch clamp on CHO cells stably expressing hERG", "units": {"hERG current change (%, negative = inhibition) at 10uM": "%"}, "values": [{"smiles": "Cc1cccc(Oc2ccc(S(=O)(=O)N3CCCCC3)cc2NC(=O)C2=COCCO2)c1", "hERG current change (%, negative = inhibition) at 10uM": -48.5}, {"smiles": "O=C(CSc1nnc(-c2cccc(F)c2)o1)N1CCOCC1", "hERG current change (%, negative = inhibition) at 10uM": 16.4}, {"smiles": "CC(=O)COc1ncn(-c2ccccc2)n1", "hERG current change (%, negative = inhibition) at 10uM": 5.85}, {"smiles": "Cc1[nH]n2c(=O)cc(C(C)C)nc2c1-c1ccccc1", "hERG current change (%, negative = inhibition) at 10uM": -12.1}, {"smiles": "Cc1ccc(NC(=O)CCS(=O)(=O)c2ccc3nc(C)sc3c2)cc1", "hERG current change (%, negative = inhibition) at 10uM": 15.2}, {"smiles": "CC(NC(=O)C1CCCN1S(=O)(=O)c1ccccc1)c1ccccc1", "note": "(stereo not drawn)", "hERG current change (%, negative = inhibition) at 10uM": 22.6}, {"smiles": "COc1ccccc1CNC(=O)C(CC(C)C)NS(=O)(=O)c1ccc2c(c1)oc(=O)n2C", "note": "(stereo not drawn)", "hERG current change (%, negative = inhibition) at 10uM": 5.97}, {"smiles": "CCOCCCNC(=O)C(c1ccccc1)N(Cc1ccc2c(c1)OCO2)C(=O)CNC(C)=O", "note": "(stereo not drawn)", "hERG current change (%, negative = inhibition) at 10uM": 2.65}, {"smiles": "CCOC(=O)N1CCC(n2c(SCC(=O)N3CCCC3)nc3ccccc3c2=O)CC1", "hERG current change (%, negative = inhibition) at 10uM": -20.9}, {"smiles": "O=C(COC(=O)c1oc2ccccc2c1CSc1ccc(Cl)cc1)NC1CCCC1", "hERG current change (%, negative = inhibition) at 10uM": 9.37}, {"smiles": "CCOc1ccc2nc(SCC(=O)c3ccc(Cl)s3)sc2c1", "hERG current change (%, negative = inhibition) at 10uM": -0.0959}, {"smiles": "Cc1c(C(=O)N(Cc2ccc(F)cc2)C2CCS(=O)(=O)C2)oc2ccccc12", "note": "(stereo not drawn)", "hERG current change (%, negative = inhibition) at 10uM": -25.5}, {"smiles": "CCn1ncc(Br)c1C(=O)Nc1cccc(F)c1", "hERG current change (%, negative = inhibition) at 10uM": 2.54}, {"smiles": "Cn1nc(C(=O)Nc2ccccc2N2CCOCC2)ccc1=O", "hERG current change (%, negative = inhibition) at 10uM": -24.4}, {"smiles": "CCC(C)(C)C(=O)Nc1cccc(Cl)c1C", "hERG current change (%, negative = inhibition) at 10uM": 19.9}, {"smiles": "Cc1cc(C)nc(SCCC(=O)N2CCOCC2)n1", "hERG current change (%, negative = inhibition) at 10uM": 23.4}, {"smiles": "CCC(C)C(=O)Nc1nnc(SCC(=O)NC2CCCCC2)s1", "note": "(stereo not drawn)", "hERG current change (%, negative = inhibition) at 10uM": 20.9}, {"smiles": "Cc1ccc(C)c(-n2nnnc2SCC(=O)Nc2cccc(-c3nnc4n3CCCCC4)c2)c1", "hERG current change (%, negative = inhibition) at 10uM": -29.4}, {"smiles": "CCOc1ccc2c3c(c(=O)oc2c1OCC)CCCC3", "hERG current change (%, negative = inhibition) at 10uM": 0.627}, {"smiles": "O=C(O)c1ccccc1C(=O)Nc1ccc(Oc2ccccc2)cc1", "hERG current change (%, negative = inhibition) at 10uM": 23.2}, {"smiles": "C1CC1Cc1noc(CN2CCN(C3C4CC5CC(C4)CC3C5)CC2)n1", "note": "(stereo not drawn)", "hERG current change (%, negative = inhibition) at 10uM": -48.5}, {"smiles": "N#CC1=C(N)SC(N)=C(C#N)C1c1cccc(Oc2ccccc2)c1", "hERG current change (%, negative = inhibition) at 10uM": 16.9}, {"smiles": "CCOC(=O)/C(C#N)=C/c1cc2ccccc2nc1Cl", "hERG current change (%, negative = inhibition) at 10uM": -9.56}, {"smiles": "Cc1cc(NCCO)c2cc(O)ccc2n1.Cl", "hERG current change (%, negative = inhibition) at 10uM": 23.4}, {"smiles": "NC(=O)c1cc([N+](=O)[O-])ccc1N1CCCCC1", "hERG current change (%, negative = inhibition) at 10uM": -17.2}, {"smiles": "CN1CCSc2ccc(C(=O)Nc3ccc(Cl)cc3)cc21", "hERG current change (%, negative = inhibition) at 10uM": 15.3}, {"smiles": "Nc1cc(=O)[nH]c(SCC(=O)Nc2nc3ccc([N+](=O)[O-])cc3s2)n1", "hERG current change (%, negative = inhibition) at 10uM": 22.8}, {"smiles": "CCN1CCN(C(CNS(=O)(=O)c2ccc(OC)cc2)c2cccnc2)CC1", "note": "(stereo not drawn)", "hERG current change (%, negative = inhibition) at 10uM": -45.4}, {"smiles": "Cc1cccc(NC(=O)Cn2nc(-c3ccco3)ccc2=O)c1C", "hERG current change (%, negative = inhibition) at 10uM": 10.9}, {"smiles": "CCCc1cc(=O)[nH]c(SCC(=O)Nc2ccc(C)c(S(=O)(=O)N3CCCCC3)c2)n1", "hERG current change (%, negative = inhibition) at 10uM": 6.53}, {"smiles": "O=C(c1nc2ccccc2[nH]1)c1ccccc1[N+](=O)[O-]", "hERG current change (%, negative = inhibition) at 10uM": 5.28}, {"smiles": "CCCc1[nH]nc2c1C(c1ccsc1)C(C#N)=C(N)O2", "note": "(stereo not drawn)", "hERG current change (%, negative = inhibition) at 10uM": -7.53}, {"smiles": "CCO[C@@H]1OC(C(=O)NCc2ccccc2)=C[C@H](C2CCCCC2)[C@H]1CCCO", "hERG current change (%, negative = inhibition) at 10uM": -17.8}, {"smiles": "O=C(O)CSc1ccc2nnc(-c3cccnc3)n2n1", "hERG current change (%, negative = inhibition) at 10uM": 12.2}, {"smiles": "O=C(NCc1ccccc1)C1=C[C@@H](c2ccc3c(c2)OCO3)C[C@@H](OCc2ccc(CO)cc2)O1", "hERG current change (%, negative = inhibition) at 10uM": -25}, {"smiles": "O=C(Nc1ccccc1)N1CCOCC1", "hERG current change (%, negative = inhibition) at 10uM": 14.9}, {"smiles": "CC(C)(C)c1ccc(N=C2SCC(=O)N2Cc2cccs2)cc1", "hERG current change (%, negative = inhibition) at 10uM": 9.92}, {"smiles": "CCOc1ccc(-n2ccnc(SCC(=O)Nc3ccc(CC)cc3)c2=O)cc1", "hERG current change (%, negative = inhibition) at 10uM": 7.92}, {"smiles": "NS(=O)(=O)c1ccc(NC(=O)COC(=O)CN2C(=O)C3CC=CCC3C2=O)cc1", "note": "(stereo not drawn)", "hERG current change (%, negative = inhibition) at 10uM": 0.467}, {"smiles": "O=C(NCCCn1ccnc1)c1ccc2ccccc2c1", "hERG current change (%, negative = inhibition) at 10uM": -17.7}, {"smiles": "CCOC(=O)c1c(C)oc2c1c(C(c1cccnc1)N1CCOCC1)c(O)c1ccccc12", "note": "(stereo not drawn)", "hERG current change (%, negative = inhibition) at 10uM": 16.9}, {"smiles": "COc1cc2c(cc1OC)C(COc1ccccc1OC)N(C(=O)C(C)C)CC2", "note": "(stereo not drawn)", "hERG current change (%, negative = inhibition) at 10uM": -6.65}, {"smiles": "CSCC[C@H](NC(=O)c1ccc(Cl)c(S(=O)(=O)N2CCCC2)c1)c1nc2ccccc2[nH]1", "hERG current change (%, negative = inhibition) at 10uM": -30.4}, {"smiles": "O=C(N/N=C/C=C\\c1ccco1)c1cccs1", "hERG current change (%, negative = inhibition) at 10uM": 14.7}, {"smiles": "CCn1cc(Cl)c(C(=O)Nc2cc(C(=O)OC)cc(C(=O)OC)c2)n1", "hERG current change (%, negative = inhibition) at 10uM": 5.97}, {"smiles": "COCCn1c(-c2ccc(F)cc2)nc2cccnc21", "hERG current change (%, negative = inhibition) at 10uM": 12.1}, {"smiles": "O=C(Nc1ccc(Br)cc1)c1ccc(N2C(=O)C3CC=CCC3C2=O)cc1", "note": "(stereo not drawn)", "hERG current change (%, negative = inhibition) at 10uM": 7.76}, {"smiles": "C/C(=N\\NC(=O)C1(C)CC1(Br)Br)c1cccc(NC(=O)C2CCC2)c1", "note": "(stereo not drawn)", "hERG current change (%, negative = inhibition) at 10uM": -24.6}, {"smiles": "N/N=C1\\CCCc2c1[nH]c1ccc([N+](=O)[O-])cc21", "hERG current change (%, negative = inhibition) at 10uM": -5.46}, {"smiles": "CCc1ccc(C(=O)COC(=O)c2cnccn2)cc1", "hERG current change (%, negative = inhibition) at 10uM": 0.242}, {"smiles": "O=C(NNC(=O)c1cccs1)c1ccco1", "hERG current change (%, negative = inhibition) at 10uM": 12.4}, {"smiles": "CN(C(=O)c1ccc(C#N)cc1)c1nnc(-c2cnccn2)s1", "hERG current change (%, negative = inhibition) at 10uM": -8.93}, {"smiles": "CCC(=O)OC1(Cc2ccc(CC)cc2)CC(C)N(C)CC1C.Cl", "note": "(stereo not drawn)", "hERG current change (%, negative = inhibition) at 10uM": -59.4}, {"smiles": "CC1(C)OC(=O)N(c2ccccc2)C12C=Cc1cc(Br)ccc1O2", "note": "(stereo not drawn)", "hERG current change (%, negative = inhibition) at 10uM": -14.4}, {"smiles": "Cc1ccc(Oc2ncccc2NC(=O)CC2(CC(=O)O)CCCC2)c2c1CCC2", "hERG current change (%, negative = inhibition) at 10uM": -10.8}, {"smiles": "COc1ccc(OC)c(NC(=O)c2cc(S(=O)(=O)N3CCCCC3)c[nH]2)c1", "hERG current change (%, negative = inhibition) at 10uM": 14.6}, {"smiles": "Cc1cc(Cl)ccc1Oc1nc(-c2ccc(F)cc2)ccc1C#N", "hERG current change (%, negative = inhibition) at 10uM": -27.7}]}]}
